Assay results taken from article PMC12040169 (PLOS Biology, 2025).
Some of the results follow.

What follows are molecules tested on T1, C. trachomatis L2/434/Bu expressing GFP (CTL2-GFP). Conditions: total inclusion area; 28.5 h, 10 µM; inhibitor.
T1 construct: L2/434/Bu GFP intracellular growth in HeLa cells
Set-up: species or system HeLa; C. trachomatis total inclusion area by high-content imaging, normalised to DMSO
Outline: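 Post-fluorescence-read fixation, DNA staining with Hoechst and high-content imaging; GFP inclusion area and number per well, and nuclei counts, used as proxies for bacterial growth and host viability.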

In order of rising “% of control remaining” value:
1. CCc1nnc(NS(=O)(=O)c2ccc(N/C=C3\C(=O)N(c4ccc(Cl)cc4)N=C3C)cc2)s1 [CBK262416]  26.5858
2. COc1ccc(-c2cn(-c3cc(Cl)ccc3C)nn2)cc1 [CBK113023]  31.9669
3. CCn1cc(NS(=O)(=O)c2ccc(N3CCCC3=O)cc2)cn1 [CBK305922]  36.8271
4. CCOC(=O)c1cnn(C2CCCN(Cc3cccc(O)c3)C2)c1 (stereo not drawn) [CBK304046]  40.9177
5. O=C(CCN1C(=O)/C(=C/c2ccc(F)cc2)SC1=S)NNC(=O)c1cccnc1 [CBK262862]  54.2801
6. NC(=O)C1CCN(CC(O)COc2ccc(-c3ccccc3)cc2)CC1 (stereo not drawn) [CBK269528]  62.0566
7. CC1CC(=O)C2C=C(c3ccc(Br)cc3)NN=C2C1 (stereo not drawn) [CBK021352]  63.4168
8. Cc1ccc(C(=O)N2CN(C(=O)CNCC(C)C)CC2(C)C)cc1 [CBK089576C]  67.2653
9. CCc1ccc2c(c1)C(CCNC(=O)c1c(C)noc1C(F)F)C(=O)N2 (stereo not drawn) [CBK304090]  68.7994
10. CN(Cc1ccncn1)C(=O)c1cn(CC2CCCO2)nn1 (stereo not drawn) [CBK307081]  71.0989
11. Cc1nccn1CCNC(=O)c1ccccc1Cn1cccn1 [CBK281979]  71.9776
12. Cc1ccc(S(=O)(=O)N(CC(O)CN2C(=O)NC(C)(C)C2=O)c2ccccc2[N+](=O)[O-])cc1 (stereo not drawn) [CBK263572]  73.4877
13. O=C(c1ccc2nccnc2c1)N1CCN(c2ccccc2)CC1 [CBK200209]  74.5151
14. C=CCn1c(S)nnc1-c1ccc(Br)cc1 [CBK096756]  75.524
15. CCCC/C=C/c1nccnc1NCC1CC1 [CBK037268]  76.6676
16. CC1=NS(=O)(=O)NC2=C1CCCC2 [CBK022998]  78.1224
17. O=C(OCC(=O)c1cccc2ccccc12)c1cc2ccccc2cc1O [CBK265526]  82.0779
18. Cc1nc2c3c(sc2c(=O)[nH]1)NC(=O)CC3c1ccccc1 (stereo not drawn) [CBK288094]  84.1217
19. c1ccc(N2CCN(c3cc(-c4cc5ccccc5s4)ncn3)CC2)nc1 [CBK091084]  86.2673
20. COc1cncc(-c2ccc(N3CCN(C(=O)c4ccco4)CC3)nc2)c1 [CBK037801]  86.2981
21. C=CCn1c(-c2sc(NC(=O)c3ccc(CNC(=O)NC(C)C)cc3)nc2C)n[nH]c1=S [CBK297764]  86.4015
22. CCC(C)(C)c1ccc(S(=O)(=O)N2CCCN(Cc3ccnc4ccccc34)CC2)cc1 [CBK062865]  87.5406
23. Cc1nc(NS(=O)(=O)c2cc(Br)c(Cl)s2)sc1C(=O)O [CBK045560]  87.8645
24. O=C(O)c1cccc(Sc2nc3cc(Cl)c(Cl)cc3nc2N2CCCC2)c1 [CBK093588]  88.1935
25. Cc1cc(Br)ccc1C(=O)Nc1ccc2ncccc2c1 [CBK159814]  89.5009
26. O=[N+]([O-])c1ccc(N2CCN(S(=O)(=O)c3ccc(Cl)cc3)CC2)cc1NCc1cccnc1 [CBK264749]  89.8557
27. CC(C)(C)Nc1cc(NCCc2ccccc2)nc(N)n1 [CBK012708]  90.0134
28. COc1ccc(C(=O)N2CCC3(CCCN(C(=O)c4ccc5[nH]c(=O)[nH]c5c4)C3)C2)cc1OC (stereo not drawn) [CBK137086]  90.8457
29. CC1(C)CC(NC(=O)c2cc(Cn3ccc4ccccc43)[nH]n2)CCO1 (stereo not drawn) [CBK307092]  91.5395
30. c1ccc(CCNc2cncc(-c3cc4ccccc4o3)n2)nc1 [CBK066036]  92.6399
31. O=C1NCCN1C1CCN(c2ncnc3ccccc23)CC1 [CBK304896]  92.8166
32. O=C(Cn1cnc2c(cnn2-c2ccc(F)cc2)c1=O)Nc1ccc(F)cc1F [CBK287537]  93.8534
33. CN(C)C(=O)CN1C(=O)CC2(C1=O)C(=O)N(C)c1ccc(Cl)cc12 (stereo not drawn) [CBK075232]  96.867
34. CC1CCCN(C(=O)Cn2ncn3c(cc4ccsc43)c2=O)C1 (stereo not drawn) [CBK284245]  97.2813
35. O=C(NOCc1ccccc1)c1nn(-c2ncccn2)c2ccccc12 [CBK048503]  99.2436
36. CN1CCN(C(=O)c2c(NS(=O)(=O)c3cc(F)c(Br)cc3F)sc3c2CCCC3)CC1 [CBK050419]  99.7341
37. O=C(c1ccc(-c2ccc(F)cc2)o1)N1CCC(n2c(=O)oc3ccccc32)CC1 [CBK286175]  100.972
38. COC(=O)CCN(C)CCC(=O)OC [CBK264539C]  101.011
39. Cc1ccc2c(c1)C(NC(=O)C1CC1)CC1(CCOCC1)O2 (stereo not drawn) [CBK284879]  101.642
40. Cc1ccc(C(=O)N2Cc3ccccc3C2)cn1 [CBK200318]  104.561
41. CCCCOc1ccccc1NC(=O)CC1NCCNC1=O (stereo not drawn) [CBK269299]  105.223
42. CCCNc1nc(O)cc(C(F)(F)F)n1 [CBK000214]  105.829
43. N#Cc1c(NC(=O)CSc2nnnn2-c2ccc(C(=O)O)cc2)sc2c1CCCC2 [CBK299876]  108.261
44. Cn1c(Sc2ccc(C#N)cn2)nnc1-c1ccco1 [CBK297756]  108.668
45. Cc1nonc1CNC(=O)N1CCOCC(C2CCC2)C1 (stereo not drawn) [CBK304086]  111.235
46. CC(C)(C)C1CCc2c(sc(NC(=S)NC(=O)c3cc4ccccc4o3)c2C(N)=O)C1 (stereo not drawn) [CBK268635]  112.355
47. Cc1ccc(C(=O)O)cc1S(=O)(=O)N(C)CCO [CBK267167]  118.632
48. Nn1c(SCC(=O)Nc2cccc3ccccc23)nnc1-c1ccccc1Cl [CBK266080]  125.226
49. Cc1nc2ccc(C(=O)NC3=NC(=O)CS3)cn2c1N(C)Cc1cccs1 [CBK146110]  127.182
50. O=C1CC(c2ccc(F)cc2)CC(=O)C1=CNCCN1CCN(C(=S)Nc2ccccc2)CC1 (stereo not drawn) [CBK264784]  134.574
51. CN(C)/C=N/c1ncnc2c1nc(Br)n2C1CC(O)C(CO)O1 (stereo not drawn) [CBK201277]  138.501
